Biological target: human CD163 on cells (human) (UniProt Q86VB7)
Experiment: flow cytometry, human mononuclear cells from buffy coats stained with Mac2-158-FITC, anti-CD14-PE and KN2/NRY-Alexa Fluor647

share of cells in the upper left quadrant (KN2/NRY-Alexa Fluor 647 positive, CD14-PE negative): 0.72%
share of cells in the upper left quadrant (KN2/NRY-Alexa Fluor 647 positive, Mac2-158-FITC negative): 11.7%
share of cells in the upper right quadrant (KN2/NRY-Alexa Fluor 647 positive, CD14-PE positive): 82.2%
share of cells in the upper right quadrant (positive for both KN2/NRY-Alexa Fluor 647 and Mac2-158-FITC): 70.7%
B1: KN2/NRY (antibody)
heavy: QVQLQESGPGLVKPSETLSLTCTVSGYSITSDYAWNWIRQFPGNKLEWMGYITYSGSTYYNPSLKSRVTISVDTSKNQFSLKLSSVTAADTATYYCVSGTYYFDYWGQGTTLTVSSASTKGPSVFPLAPCSRSTSESTAALGCLVKDYFPEPVTVSWNSGALTSGVHTFPAVLQSSGLYSLSSVVTVPSSSLGTKTYTCNVDHKPSNTKVDKRV[left out - human IgG4 Fc]
light: DIVMTQSPSSLSASVGDRVTITCRASQSVSSDVAWFQQKPGKSPKPLIYYASNRYSGVPSRFSGSGSGTDFTLTISSLQAEDFAVYFCGQDYTSPRTFGGGTKLEIKRTVAAPSVFIFPPSDEQLKSGTASVVCLLNNFYPREAKVQWKVDNALQSGNSQESVTEQDSKDSTYSLSSTLTLSKADYEKHKVYACEVTHQGLSSPVTKSFNRGEC
modifications: HRP, Alexa Fluor647 or dexamethasone conjugates in some assays are not carried by the letters

Reference: patent publication US20120276193A1 (CYTOGUIDE A S, published 2012)
